Measurements as given in doi:10.1101/2019.12.19.883264 (bioRxiv, 2019).

Biological target: the molecule itself
Test: cross-linking

B1: His-tagged NPM1 S48A, recombinant (natural protein)
chain: not shown
**Q.** Does B1 bind?
**A.** binds
